# Test results from a collection of fitness landscapes (doi:10.1126/science.1257360).
# Some of the results follow.
# B1: PhoQ; a variant is named by its letters at X, in order, P23837 (parent)
# chain: MKKLLRLFFPLSLRVRFLLATAAVVLVLSLAYGMVALIGYSVSFDKTTFRLLRGESNLFYTLAKWENNKLHVELPENIDKQSPTMTLIYDENGQLLWAQRDVPWLMKMIQPDWLKSNGFHEIEADVNDTSLLLSGDHSIQQQLQEVREDDDDAEMTHSVAVNVYPATSRMPKLTIVVVDTIPVELKSSYMVWSWFIYVLSANLLLVIPLLWVAAWWSLRPIEALAKEVRELEEHNRELLNPATTRELTSLVRNLNRLLKSERERYDKYRTTLTDLTHSLKTPLXXLQXXLRSLRSEKMSVSDAEPVMLEQISRISQQIGYYLHRASMRGGTLLSRELHPVAPLLDNLTSALNKVYQRKGVNISLDISPEISFVGEQNDFVEVMGNVLDNACKYCLEFVEISARQTDEHLYIVVEDDGPGIPLSKREVIFDRGQRVDTLRPGQGVGLAVAREITEQYEGKIVAGESMLGGARMEVIFGRQHSAPKDE
# Variants of: B1
# Experiment: enrichment ratio after two sorts for PhoP signalling (ratio (wild type AVST 3.29)); higher = more functional
# Conditions: with PhoP (E. coli)
row,Variant,enrichment ratio
1,TPVG,≤ 0.25
2,MYCC,≤ 0.25
3,PADL,≤ 0.25
4,PHDN,≤ 0.25
5,VQYD,≤ 0.25
6,GSLL,14.1
7,QPHH,≤ 0.25
8,LYRQ,≤ 0.25
9,VQLK,≤ 0.25
10,RHYE,≤ 0.25
11,NQVP,≤ 0.25
12,NFME,≤ 0.25
13,RVKE,≤ 0.25
14,VDSI,≤ 0.25
15,EGYK,≤ 0.25
16,YVRA,≤ 0.25
17,IRYF,≤ 0.25
18,RYWN,≤ 0.25
19,HQTR,≤ 0.25
20,PERR,≤ 0.25
21,HNST,≤ 0.25
22,SYIC,0.411
23,LYTP,≤ 0.25
24,WRNF,≤ 0.25
25,KPRQ,≤ 0.25

row,Variant,enrichment ratio
1,PQTF,≤ 0.25
2,LEKL,≤ 0.25
3,YSTY,≤ 0.25
4,IEIT,≤ 0.25
5,LWLE,≤ 0.25
6,MLRG,≤ 0.25
7,KQFN,≤ 0.25
8,RGWR,≤ 0.25
9,MPNH,≤ 0.25
10,GVKV,≤ 0.25
11,RYYN,≤ 0.25
12,NQFR,≤ 0.25
13,ERAI,≤ 0.25
14,NKAL,≤ 0.25
15,AHMN,≤ 0.25
16,PVKD,≤ 0.25
17,ILKW,≤ 0.25
18,SYSN,≤ 0.25
19,AEQR,≤ 0.25
20,WWRM,≤ 0.25
21,RFWY,≤ 0.25
22,ANLM,13.3
23,QSYI,7.28
24,TFHW,≤ 0.25
25,AYRV,≤ 0.25

row,Variant,enrichment ratio
1,PEAA,≤ 0.25
2,NSLG,0.537
3,WNDE,≤ 0.25
4,RMDW,≤ 0.25
5,SNLV,15.8
6,QRSY,≤ 0.25
7,RNDC,≤ 0.25
8,GQLL,7.89
9,ERIT,≤ 0.25
10,QEEH,≤ 0.25
11,IVFR,≤ 0.25
12,FELR,≤ 0.25
13,IYRF,≤ 0.25
14,KTKN,≤ 0.25
15,GFNS,≤ 0.25
16,FTRK,≤ 0.25
17,AITQ,1.78
18,IIHL,≤ 0.25
19,WIHR,≤ 0.25
20,VGKQ,≤ 0.25
21,TVDT,≤ 0.25
22,LGDR,≤ 0.25
23,NRTI,≤ 0.25
24,EESR,≤ 0.25
25,LFGL,≤ 0.25

row,Variant,enrichment ratio
1,AHFF,≤ 0.25
2,YQHP,≤ 0.25
3,ARLY,1.16
4,AQSK,≤ 0.25
5,GGWY,≤ 0.25
6,IYDP,≤ 0.25
7,GSEY,≤ 0.25
8,SHCN,13.2
9,WNYD,≤ 0.25
10,WEFF,≤ 0.25
11,YVIK,≤ 0.25
12,TGGD,≤ 0.25
13,HTMG,≤ 0.25
14,RHLR,≤ 0.25
15,WTSH,≤ 0.25
16,ENVY,≤ 0.25
17,GNCK,≤ 0.25
18,AFHQ,≤ 0.25
19,YPWW,≤ 0.25
20,RIFW,≤ 0.25
21,TIYT,2.66
22,FHAT,≤ 0.25
23,MFYL,≤ 0.25
24,THQN,≤ 0.25
25,HEEH,≤ 0.25

row,Variant,enrichment ratio
1,RITN,≤ 0.25
2,YQHS,≤ 0.25
3,EKTH,≤ 0.25
4,GCQL,≤ 0.25
5,KCGY,≤ 0.25
6,HYVR,≤ 0.25
7,KSYI,≤ 0.25
8,HWDV,≤ 0.25
9,NVRS,≤ 0.25
10,VCVI,≤ 0.25
11,WTHK,≤ 0.25
12,PSRS,≤ 0.25
13,PHQS,≤ 0.25
14,DTCC,≤ 0.25
15,EYYV,≤ 0.25
16,LWMT,≤ 0.25
17,SQYH,≤ 0.25
18,MDAW,≤ 0.25
19,PVNG,≤ 0.25
20,LMDD,≤ 0.25
21,KIKF,≤ 0.25
22,GWAT,≤ 0.25
23,ATMC,11.2
24,GYMA,≤ 0.25
25,NESC,≤ 0.25

row,Variant,enrichment ratio
1,YQTW,≤ 0.25
2,SPKW,≤ 0.25
3,MWWC,≤ 0.25
4,WYWA,≤ 0.25
5,HPHA,≤ 0.25
6,AGNY,≤ 0.25
7,SNVF,4.94
8,HNFW,≤ 0.25
9,MVLS,0.97
10,PVSF,≤ 0.25
11,IYGV,≤ 0.25
12,RDHP,≤ 0.25
13,SVIE,≤ 0.25
14,LERM,≤ 0.25
15,IRRH,≤ 0.25
16,TATA,4.44
17,NRVM,≤ 0.25
18,WTRI,≤ 0.25
19,ANCQ,3.31
20,IRCR,0.646
21,VHAF,≤ 0.25
22,TRKL,≤ 0.25
23,FWDM,≤ 0.25
24,TSPK,≤ 0.25
25,FRCP,≤ 0.25

row,Variant,enrichment ratio
1,HFFY,≤ 0.25
2,TLYD,≤ 0.25
3,PLCF,≤ 0.25
4,IRAQ,≤ 0.25
5,NPYH,≤ 0.25
6,MLSK,≤ 0.25
7,NKGT,≤ 0.25
8,TGWP,≤ 0.25
9,AKVA,1.39
10,WRWY,≤ 0.25
11,PKIM,≤ 0.25
12,HWWC,≤ 0.25
13,QCVV,≤ 0.25
14,PYRF,≤ 0.25
15,WHLC,≤ 0.25
16,YKSQ,≤ 0.25
17,LNLY,≤ 0.25
18,GTIY,≤ 0.25
19,EATR,≤ 0.25
20,NHTI,≤ 0.25
21,NVMC,≤ 0.25
22,WYDK,≤ 0.25
23,DCTS,≤ 0.25
24,YWNS,≤ 0.25
25,GWGC,≤ 0.25

row,Variant,enrichment ratio
1,HHTH,≤ 0.25
2,WQFS,≤ 0.25
3,KKFH,≤ 0.25
4,REEC,≤ 0.25
5,EESC,≤ 0.25
6,EMRP,≤ 0.25
7,DMFF,≤ 0.25
8,ATLE,≤ 0.25
9,FEQN,≤ 0.25
10,YCYY,≤ 0.25
11,HCGY,≤ 0.25
12,WHRR,≤ 0.25
13,FQHD,≤ 0.25
14,TDND,≤ 0.25
15,MVRQ,≤ 0.25
16,QVAS,≤ 0.25
17,PYAE,≤ 0.25
18,MIHL,4.56
19,TEVC,10.5
20,WDRP,≤ 0.25
